Experimental data from article PMC2265268.
Results are given in words; binding and its absence hold for the method and conditions named. Binding seen in cells or lysates may run through a third protein. Some results given as binding are weak or reduced against the parent protein; the word gives no strength. One block for each substance: values may come before it.

Chains of the proteins cited; added tags and fusions are not shown. Lines headed by an entry give the natural chain unless they say otherwise; changes in a name come on top. Residues count along the entry.
UniProt Q15393: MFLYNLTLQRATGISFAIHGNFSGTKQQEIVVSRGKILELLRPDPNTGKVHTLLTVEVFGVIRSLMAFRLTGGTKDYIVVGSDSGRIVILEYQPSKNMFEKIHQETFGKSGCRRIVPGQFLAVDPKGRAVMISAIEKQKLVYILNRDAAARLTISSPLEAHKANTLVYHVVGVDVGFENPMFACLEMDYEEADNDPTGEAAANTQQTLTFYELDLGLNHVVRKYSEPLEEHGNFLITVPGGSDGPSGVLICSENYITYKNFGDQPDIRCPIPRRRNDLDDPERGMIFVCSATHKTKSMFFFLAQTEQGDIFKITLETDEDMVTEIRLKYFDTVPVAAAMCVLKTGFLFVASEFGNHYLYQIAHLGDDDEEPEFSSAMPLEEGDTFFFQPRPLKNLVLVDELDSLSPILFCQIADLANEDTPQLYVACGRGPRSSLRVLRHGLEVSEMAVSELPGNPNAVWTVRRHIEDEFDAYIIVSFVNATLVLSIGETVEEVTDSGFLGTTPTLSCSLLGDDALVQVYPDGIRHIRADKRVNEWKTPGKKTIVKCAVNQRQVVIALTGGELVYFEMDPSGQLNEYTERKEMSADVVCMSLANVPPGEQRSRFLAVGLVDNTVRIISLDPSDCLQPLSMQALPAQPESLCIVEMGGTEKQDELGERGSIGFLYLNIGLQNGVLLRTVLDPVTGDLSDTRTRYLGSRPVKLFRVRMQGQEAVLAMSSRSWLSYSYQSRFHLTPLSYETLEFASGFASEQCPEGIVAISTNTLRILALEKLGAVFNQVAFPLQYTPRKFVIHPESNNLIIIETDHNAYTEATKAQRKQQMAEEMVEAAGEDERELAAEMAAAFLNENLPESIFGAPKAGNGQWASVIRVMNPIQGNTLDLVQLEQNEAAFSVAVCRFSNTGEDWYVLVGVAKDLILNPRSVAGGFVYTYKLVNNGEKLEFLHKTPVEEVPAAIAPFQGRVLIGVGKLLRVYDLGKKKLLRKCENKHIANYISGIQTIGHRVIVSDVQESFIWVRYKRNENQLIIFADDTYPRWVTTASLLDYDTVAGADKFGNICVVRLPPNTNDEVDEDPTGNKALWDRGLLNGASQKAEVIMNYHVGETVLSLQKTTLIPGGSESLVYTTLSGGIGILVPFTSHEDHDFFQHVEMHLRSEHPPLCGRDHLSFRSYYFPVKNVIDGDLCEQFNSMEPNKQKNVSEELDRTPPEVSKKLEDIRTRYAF
UniProt P40337: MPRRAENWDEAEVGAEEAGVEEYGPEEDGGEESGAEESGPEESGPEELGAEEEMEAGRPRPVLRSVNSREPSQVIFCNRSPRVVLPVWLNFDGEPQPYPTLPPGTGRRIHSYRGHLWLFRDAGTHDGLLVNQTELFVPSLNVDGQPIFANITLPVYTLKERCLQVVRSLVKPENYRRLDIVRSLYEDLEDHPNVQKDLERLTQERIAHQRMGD
UniProt Q13098: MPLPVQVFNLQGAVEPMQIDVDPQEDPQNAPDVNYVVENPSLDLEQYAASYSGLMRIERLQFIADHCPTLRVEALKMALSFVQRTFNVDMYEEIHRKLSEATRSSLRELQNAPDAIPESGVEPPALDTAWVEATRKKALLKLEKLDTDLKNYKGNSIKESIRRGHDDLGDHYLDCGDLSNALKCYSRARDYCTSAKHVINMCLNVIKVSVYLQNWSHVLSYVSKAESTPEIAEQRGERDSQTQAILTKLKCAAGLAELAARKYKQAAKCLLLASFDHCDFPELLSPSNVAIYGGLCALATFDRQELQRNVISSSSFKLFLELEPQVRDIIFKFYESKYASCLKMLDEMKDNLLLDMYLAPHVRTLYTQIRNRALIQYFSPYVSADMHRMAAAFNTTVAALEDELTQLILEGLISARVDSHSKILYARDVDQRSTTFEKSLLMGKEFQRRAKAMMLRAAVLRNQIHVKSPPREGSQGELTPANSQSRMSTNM
CSN1N (1–196 aa): residues 1-196 of Q13098
UniProt P61201: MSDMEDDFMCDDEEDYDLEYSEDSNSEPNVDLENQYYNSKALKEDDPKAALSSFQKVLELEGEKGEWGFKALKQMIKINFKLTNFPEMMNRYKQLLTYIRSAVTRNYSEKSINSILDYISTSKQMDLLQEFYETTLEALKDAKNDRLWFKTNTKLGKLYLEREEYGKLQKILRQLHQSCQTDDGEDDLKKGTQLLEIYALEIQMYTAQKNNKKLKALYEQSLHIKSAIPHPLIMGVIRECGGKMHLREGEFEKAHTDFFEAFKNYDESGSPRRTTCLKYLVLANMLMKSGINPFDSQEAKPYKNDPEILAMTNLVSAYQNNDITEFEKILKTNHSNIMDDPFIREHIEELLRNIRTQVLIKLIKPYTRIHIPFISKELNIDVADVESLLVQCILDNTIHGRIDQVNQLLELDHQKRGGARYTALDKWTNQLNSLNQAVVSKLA
UniProt Q92905: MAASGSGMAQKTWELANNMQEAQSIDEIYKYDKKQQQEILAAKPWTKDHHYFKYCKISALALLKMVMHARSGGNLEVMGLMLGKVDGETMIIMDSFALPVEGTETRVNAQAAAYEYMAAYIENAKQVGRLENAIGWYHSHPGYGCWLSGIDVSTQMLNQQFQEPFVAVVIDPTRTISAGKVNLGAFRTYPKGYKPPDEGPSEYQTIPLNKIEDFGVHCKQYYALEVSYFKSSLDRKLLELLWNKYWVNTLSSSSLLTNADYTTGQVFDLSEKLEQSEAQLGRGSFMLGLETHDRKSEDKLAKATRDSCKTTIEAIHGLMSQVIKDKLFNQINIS
UniProt Q16531: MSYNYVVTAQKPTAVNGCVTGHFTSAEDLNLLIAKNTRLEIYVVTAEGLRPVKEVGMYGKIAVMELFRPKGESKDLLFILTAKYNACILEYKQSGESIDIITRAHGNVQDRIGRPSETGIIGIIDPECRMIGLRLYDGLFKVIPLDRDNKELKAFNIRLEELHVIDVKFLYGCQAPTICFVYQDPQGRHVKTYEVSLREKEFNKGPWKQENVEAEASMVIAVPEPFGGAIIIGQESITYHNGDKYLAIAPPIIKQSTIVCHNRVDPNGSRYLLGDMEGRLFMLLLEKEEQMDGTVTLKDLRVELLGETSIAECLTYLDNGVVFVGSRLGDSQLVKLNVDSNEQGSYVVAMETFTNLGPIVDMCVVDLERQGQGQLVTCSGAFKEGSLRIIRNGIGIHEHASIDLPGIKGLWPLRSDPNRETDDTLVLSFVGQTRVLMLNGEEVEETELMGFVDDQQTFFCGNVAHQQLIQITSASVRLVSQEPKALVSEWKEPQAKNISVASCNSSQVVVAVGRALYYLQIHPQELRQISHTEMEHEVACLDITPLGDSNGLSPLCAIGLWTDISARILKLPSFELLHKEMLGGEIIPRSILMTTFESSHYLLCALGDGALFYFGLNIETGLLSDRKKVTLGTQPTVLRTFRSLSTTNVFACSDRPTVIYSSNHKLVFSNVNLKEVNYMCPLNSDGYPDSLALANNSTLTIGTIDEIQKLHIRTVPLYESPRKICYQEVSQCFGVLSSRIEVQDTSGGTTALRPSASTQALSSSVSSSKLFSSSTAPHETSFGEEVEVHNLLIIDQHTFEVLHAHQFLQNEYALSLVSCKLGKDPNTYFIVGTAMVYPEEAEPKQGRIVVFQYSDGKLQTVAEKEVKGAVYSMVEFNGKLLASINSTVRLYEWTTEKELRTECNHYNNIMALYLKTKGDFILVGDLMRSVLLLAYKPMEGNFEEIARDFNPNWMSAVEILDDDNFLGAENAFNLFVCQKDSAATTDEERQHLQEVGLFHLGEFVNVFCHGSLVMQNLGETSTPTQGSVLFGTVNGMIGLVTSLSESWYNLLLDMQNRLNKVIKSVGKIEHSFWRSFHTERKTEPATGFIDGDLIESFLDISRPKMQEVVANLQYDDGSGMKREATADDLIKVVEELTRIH
UniProt Q92466: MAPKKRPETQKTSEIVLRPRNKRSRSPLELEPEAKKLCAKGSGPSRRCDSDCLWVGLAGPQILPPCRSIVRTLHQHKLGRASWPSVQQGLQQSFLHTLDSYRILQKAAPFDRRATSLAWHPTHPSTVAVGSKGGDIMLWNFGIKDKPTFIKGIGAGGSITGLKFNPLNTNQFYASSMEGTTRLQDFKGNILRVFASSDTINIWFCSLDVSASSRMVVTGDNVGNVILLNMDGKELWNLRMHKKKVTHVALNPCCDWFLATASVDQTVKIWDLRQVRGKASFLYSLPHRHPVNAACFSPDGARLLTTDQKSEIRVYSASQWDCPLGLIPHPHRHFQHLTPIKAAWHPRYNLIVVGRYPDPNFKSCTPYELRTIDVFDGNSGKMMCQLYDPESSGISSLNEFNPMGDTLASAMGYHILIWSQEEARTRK
UniProt Q15843, residues 1-76: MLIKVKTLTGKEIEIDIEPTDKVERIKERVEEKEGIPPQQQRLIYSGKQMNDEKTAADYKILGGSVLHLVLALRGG
UniProt O75533: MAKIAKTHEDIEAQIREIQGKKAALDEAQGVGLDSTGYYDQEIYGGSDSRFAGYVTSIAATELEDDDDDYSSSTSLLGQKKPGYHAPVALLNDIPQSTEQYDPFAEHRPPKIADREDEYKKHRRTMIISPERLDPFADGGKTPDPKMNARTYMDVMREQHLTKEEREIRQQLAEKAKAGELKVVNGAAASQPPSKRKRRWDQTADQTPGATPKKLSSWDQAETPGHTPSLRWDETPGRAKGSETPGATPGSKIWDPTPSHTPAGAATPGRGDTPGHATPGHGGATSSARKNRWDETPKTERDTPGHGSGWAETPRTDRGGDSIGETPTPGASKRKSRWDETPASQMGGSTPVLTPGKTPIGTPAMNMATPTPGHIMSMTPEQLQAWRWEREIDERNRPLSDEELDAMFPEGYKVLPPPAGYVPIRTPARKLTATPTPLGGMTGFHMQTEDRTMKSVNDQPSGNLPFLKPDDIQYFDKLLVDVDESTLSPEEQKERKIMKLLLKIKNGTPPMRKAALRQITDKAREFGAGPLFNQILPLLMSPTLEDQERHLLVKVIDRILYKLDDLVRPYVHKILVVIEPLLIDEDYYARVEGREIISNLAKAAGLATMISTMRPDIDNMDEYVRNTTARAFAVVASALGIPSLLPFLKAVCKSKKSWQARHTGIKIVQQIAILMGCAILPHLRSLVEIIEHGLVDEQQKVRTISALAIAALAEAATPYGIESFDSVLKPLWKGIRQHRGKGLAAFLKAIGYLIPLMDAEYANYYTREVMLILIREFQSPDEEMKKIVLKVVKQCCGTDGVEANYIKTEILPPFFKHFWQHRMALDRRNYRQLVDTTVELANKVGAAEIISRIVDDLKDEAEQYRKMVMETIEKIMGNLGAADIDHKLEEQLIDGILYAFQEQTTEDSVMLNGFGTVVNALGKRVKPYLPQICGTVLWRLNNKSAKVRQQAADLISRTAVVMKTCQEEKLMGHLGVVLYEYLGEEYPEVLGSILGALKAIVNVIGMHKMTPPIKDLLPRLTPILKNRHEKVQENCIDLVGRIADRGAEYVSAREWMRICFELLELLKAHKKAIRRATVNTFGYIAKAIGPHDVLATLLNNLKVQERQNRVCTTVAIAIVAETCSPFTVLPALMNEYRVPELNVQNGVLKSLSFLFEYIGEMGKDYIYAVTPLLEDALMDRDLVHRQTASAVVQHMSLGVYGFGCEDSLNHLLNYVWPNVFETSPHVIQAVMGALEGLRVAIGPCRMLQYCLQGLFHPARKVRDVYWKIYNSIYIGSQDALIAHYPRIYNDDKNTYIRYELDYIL
UniProt P63208: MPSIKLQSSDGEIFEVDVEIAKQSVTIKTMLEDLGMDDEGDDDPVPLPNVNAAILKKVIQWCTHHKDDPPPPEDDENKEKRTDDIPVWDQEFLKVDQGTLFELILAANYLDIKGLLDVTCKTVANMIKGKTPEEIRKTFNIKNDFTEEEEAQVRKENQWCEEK

Legend:
[1] = molecular target: HA-SAP130 (UniProt Q15393); test: co-IP; HEK293 cells transiently transfected with HA-SAP130 or empty vector; anti-HA IP, blots for endogenous proteins; 10 μM MG132 before collection
[2] = molecular target: HA-SAP130 (UniProt Q15393); test: co-IP; data not shown; transiently expressed DDB2 co-precipitated by SAP130
[3] = molecular target: HA-VHL (UniProt P40337); test: co-IP; HEK293 cells transfected with HA-VHL and Flag-SAP130; anti-HA and anti-Flag IP, blots with the indicated antibodies
[4] = molecular target: HA-SAP130 (in vitro translated) (UniProt Q15393); test: co-IP; HA-SAP130 in vitro translated in rabbit reticulocyte lysate supplemented with GST or GST-Nedd8 (1 μg each); HA IP, anti-GST blot for the free proteins; only the binder purified
[5] = molecular target: Flag-SAP130 (UniProt Q15393); test: co-IP; HA-Cul1, HA-Cul2 and their truncations transfected into Flag-SAP130 stable cells; Flag IP, anti-HA blot
[6] = molecular target: GST-CSN1 (UniProt Q13098); test: pull-down; S35-Met labeled HA-SAP130 in rabbit reticulocyte lysate incubated with recombinant GST or GST-CSN1 (1 μg each) for 30 min; GST pull-down, autoradiogram; only the target purified
[7] = molecular target: Flag-SAP130 (UniProt Q15393); test: co-IP; HEK293 cells transfected with HA-VHL and Flag-SAP130; anti-HA and anti-Flag IP, blots with the indicated antibodies
[8] = molecular target: Flag-CSN1 (UniProt Q13098); test: co-IP; HeLa cells co-transfected with SAP130-myc or HA-CPSF160 and Flag-tagged CSN subunits; Flag IP, blot with anti-myc or anti-HA
[9] = molecular target: Flag-CSN2 (UniProt P61201); test: as above
[10] = molecular target: Flag-CSN5 (UniProt Q92905); test: as above
[11] = molecular target: CSN1N (1–196 aa) (UniProt Q13098); test: as above

binding [1]: binds
Substance: DDB1 (from UniProt Q16531 1-1140)

binding [2]: binds
Substance: DDB2 (transiently expressed) (from UniProt Q92466 1-427)

binding [3]: binds
Substance: Flag-SAP130 (from UniProt Q15393 1-1217)

binding [4]: no binding (tested: 1 μg)
Substance: GST-Nedd8 (from UniProt Q15843 1-76)

binding [5]: binds
Substance: HA-Cul1C280 (from UniProt Q13616 496-776) (domain or fragment)

binding [5]: binds
Substance: HA-Cul1C450 (from UniProt Q13616 326-776) (domain or fragment)

binding [5]: binds weakly
Substance: HA-Cul1N428 (from UniProt Q13616 1-428) (domain or fragment)

binding [6]: binds
Substance: HA-SAP130 (in vitro translated) (from UniProt Q15393 1-1217)

binding [7]: binds
Substance: HA-VHL (from UniProt P40337 1-213)

binding [8]: binds
binding [9]: no binding
binding [10]: binds
binding [11]: binds
Substance: SAP130-myc (from UniProt Q15393 1-1217)

binding [1]: binds
Substance: SAP155 (from UniProt O75533 1-1304)

binding [1]: binds
Substance: Skp1 (from UniProt P63208 1-163)
